Experimental data reported in the supplement of paper PMC7826260.
The other results are listed elsewhere or left out. Viral Rep nickase domains cut single-stranded DNA in vitro (3 µM enzyme, 1 h, 37 °C); shown is the middle of each 90-letter strand. Uncut reads are compared with the no-enzyme pool on a log2 scale; strong cutting gives strongly negative numbers. There is no active / inactive call. Reads are scaled to the total; uncut strands gain when others are lost, and binding without cutting may add a little.

Columns and labels:
Test in all cases: uncleaved DNA left, log2 of reads against the no-enzyme library (log2 ratio); higher = less cleavage (more negative = more Rep cleavage of the k-mer); sequences stand for … in CTCGTCCG…ACCGGAGA
[1] = tested on: T1, Rep nickase domain of Muscovy duck circovirus
T1 sequence (residues 1-111 of Rep, tag left off): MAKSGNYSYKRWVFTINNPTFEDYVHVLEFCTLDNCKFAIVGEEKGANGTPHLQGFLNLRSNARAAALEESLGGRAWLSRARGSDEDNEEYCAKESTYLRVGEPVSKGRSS
Description: (§1)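 A pool of 90-nt single-stranded DNAs with seven random bases just before the constant AC of the nick site (name = the seven bases) was cut by 3 µM recombinant His6-SUMO-tagged Rep nickase domain (300 nM DNA, 50 mM HEPES pH 8.0, 50 mM NaCl, 1 mM MnCl2, 1 h, 37 °C, three replicates). Uncut DNA was amplified and sequenced.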

[2] = tested on: T2, Rep nickase domain of banana bunchy top virus
T2 sequence (residues 1-94 of Rep, tag left off): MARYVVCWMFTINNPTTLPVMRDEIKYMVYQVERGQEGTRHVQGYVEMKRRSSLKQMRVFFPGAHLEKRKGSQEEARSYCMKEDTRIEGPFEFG
Description: as §1

[3] = tested on: T3, Rep nickase domain of cabbage leaf curl virus
T3 sequence (residues 1-116 of Rep, tag left off): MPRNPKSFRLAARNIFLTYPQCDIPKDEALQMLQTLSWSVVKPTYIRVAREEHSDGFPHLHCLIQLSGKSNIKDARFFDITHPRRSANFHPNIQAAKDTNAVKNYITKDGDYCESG
Description: as §1

[4] = tested on: T4, Rep nickase domain of chickpea chlorotic dwarf virus
T4 sequence (residues 1-124 of Rep, tag left off): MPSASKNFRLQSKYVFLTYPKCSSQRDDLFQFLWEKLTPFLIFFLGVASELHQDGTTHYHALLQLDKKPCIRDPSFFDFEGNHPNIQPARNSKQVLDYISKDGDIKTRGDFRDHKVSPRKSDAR
Description: as §1

[5] = tested on: T5, Rep nickase domain of faba bean necrotic yellows virus
T5 sequence (residues 1-98 of Rep, tag left off): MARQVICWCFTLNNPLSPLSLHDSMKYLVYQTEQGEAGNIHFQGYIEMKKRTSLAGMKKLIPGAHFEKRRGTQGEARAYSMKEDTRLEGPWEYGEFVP
Description: as §1

[6] = tested on: T6, Rep nickase domain of maize striate mosaic virus
T6 sequence (residues 1-117 of Rep, tag left off): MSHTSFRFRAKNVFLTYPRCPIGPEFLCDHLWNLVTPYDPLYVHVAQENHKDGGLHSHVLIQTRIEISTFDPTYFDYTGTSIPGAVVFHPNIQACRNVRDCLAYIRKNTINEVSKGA
Description: as §1

[7] = tested on: T7, Rep nickase domain of porcine circovirus 2
T7 sequence (residues 2-116 of Rep, tag left off): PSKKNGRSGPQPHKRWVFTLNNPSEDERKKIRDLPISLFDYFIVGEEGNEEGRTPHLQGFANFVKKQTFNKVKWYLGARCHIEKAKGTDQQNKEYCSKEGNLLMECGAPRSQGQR
Description: as §1

[8] = tested on: T8, Rep nickase domain of tomato golden mosaic virus
T8 sequence (residues 1-124 of Rep, tag left off): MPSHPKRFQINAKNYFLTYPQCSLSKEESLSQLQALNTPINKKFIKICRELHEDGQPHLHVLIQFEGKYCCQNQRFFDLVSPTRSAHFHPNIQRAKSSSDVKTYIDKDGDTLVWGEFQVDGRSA
Description: as §1

[9] = tested on: T9, Rep nickase domain of tomato yellow leaf curl virus
T9 sequence (residues 1-136 of Rep, tag left off): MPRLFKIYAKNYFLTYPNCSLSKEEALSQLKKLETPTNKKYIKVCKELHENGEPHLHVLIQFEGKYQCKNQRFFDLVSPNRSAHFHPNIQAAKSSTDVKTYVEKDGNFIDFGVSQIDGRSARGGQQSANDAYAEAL
Description: as §1

[10] = tested on: T10, Rep nickase domain of wheat dwarf virus
T10 sequence (residues 1-137 of Rep, tag left off): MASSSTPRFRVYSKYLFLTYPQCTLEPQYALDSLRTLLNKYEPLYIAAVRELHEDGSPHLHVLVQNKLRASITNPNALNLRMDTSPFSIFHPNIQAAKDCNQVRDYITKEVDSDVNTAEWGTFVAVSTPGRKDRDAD
Description: as §1

Row | Sequence | uncleaved DNA left (log2) [1] | uncleaved DNA left (log2) [2] | uncleaved DNA left (log2) [3] | uncleaved DNA left (log2) [4] | uncleaved DNA left (log2) [5] | uncleaved DNA left (log2) [6] | uncleaved DNA left (log2) [7] | uncleaved DNA left (log2) [8] | uncleaved DNA left (log2) [9] | uncleaved DNA left (log2) [10]
1 | CGTACGC | -0.0178 | 0.000806 | -0.019 | -0.0286 | -0.115 | -0.347 | -0.0286 | -0.0277 | -0.0645 | -0.061
2 | GCTCATA | 0.122 | 0.0947 | 0.105 | 0.264 | 0.13 | 0.317 | 0.0893 | 0.124 | 0.0877 | 0.0607
3 | TGGTTAA | -0.0578 | -0.0662 | 0.119 | 0.148 | -0.126 | 0.598 | -0.217 | -0.0362 | -0.0221 | -0.0623
4 | ATTACAG | -0.0246 | 0.0256 | -0.939 | -2.04 | 0.0215 | -1.16 | 0.138 | -0.0373 | -0.038 | -0.0634
5 | CAGTGGT | -0.0598 | -0.36 | 0.153 | 1.02 | -0.176 | 1.36 | -3.2 | 0.107 | -0.0777 | 0.0259
6 | CAAACTA | -0.0969 | 0.0906 | -0.334 | -2.58 | 0.0587 | -0.589 | -0.0797 | 0.0339 | 0.0333 | -0.0478
7 | TGCGAGC | 0.019 | 0.0329 | 0.113 | 0.493 | 0.126 | 0.141 | 0.217 | 0.15 | 0.0603 | 0.137
8 | GTTGACA | 0.182 | 0.113 | 0.373 | 1.14 | 0.0196 | 1.86 | 0.152 | 0.0129 | 0.164 | 0.199
9 | AGTGCTA | -0.0239 | 0.00255 | 0.175 | 0.359 | -0.0752 | 0.843 | -0.239 | 0.111 | -0.0319 | 0.0511
10 | GCGTGCA | -0.123 | -0.121 | -0.175 | -0.175 | -0.0568 | -0.578 | -0.389 | -0.106 | -0.0652 | -0.115
11 | CCGCGGG | -0.0447 | -0.0798 | 0.359 | 0.347 | 0.146 | 0.419 | 0.162 | 0.148 | -0.0345 | 0.00984
12 | TCTAGGA | 0.125 | -0.0129 | 0.116 | 0.354 | 0.0873 | -0.204 | 0.148 | 0.0065 | -0.0564 | 0.0481
13 | ACCCAGC | -0.031 | -0.0221 | -0.485 | -0.508 | -0.142 | -0.971 | 0.196 | -0.0308 | -0.0965 | -0.088
14 | AGGTGTT | -1.39 | -0.197 | -0.702 | -0.65 | -0.541 | 1.3 | -3.18 | -0.118 | -0.129 | -0.414
15 | GCGTACG | 0.0186 | 0.0582 | -0.453 | -0.177 | -0.0438 | -0.575 | 0.115 | 0.0246 | -0.0554 | -0.0689
